One experiment concerns HSkMC. As to the kind of experiment: cytotoxicity call (relative viability < 0.9). Conditions: 10 µM.
A further experiment has as its system HepG2. Put plainly: cytotoxicity call (relative viability < 0.9). The following applies: 10 µM.
In another experiment the test system is S. aureus RN4220. Put plainly: growth inhibition call (relative growth <= 0.2). Conditions: 50 µM.

Each structure is given as a SMILES string. The list shows a part of the results.

For `C[C@H](CO)N1C[C@H](C)[C@H](CN(C)C(=O)Nc2ccc(C(F)(F)F)cc2)OCc2cnnn2CCCC1=O`, the cytotoxicity call in the experiment on HSkMC is “inactive”. In addition, in the experiment with HepG2, the cytotoxicity call was “active”. In the experiment with S. aureus RN4220, the growth inhibition call is “inactive”.
For the molecule `C[C@H]1CN([C@@H](C)CO)C(=O)Cc2cc(NC(=O)Nc3ccc(C(F)(F)F)cc3)ccc2O[C@@H]1CN(C)C(=O)Nc1cccc2ccccc12`, the cytotoxicity call in the experiment with HSkMC and in the experiment on HepG2 was “inactive” each time. In addition, the growth inhibition call in the experiment on S. aureus RN4220 is “inactive”.
Turning to `CC(C)(O)C#Cc1ccc([C@@H]2[C@H](CO)N3CCCCN(S(C)(=O)=O)C[C@@H]23)cc1`, the cytotoxicity call in the experiment with HSkMC and in the experiment on HepG2 was “inactive” throughout. Further, the growth inhibition call in the experiment with S. aureus RN4220 was “inactive”.
Consider `COc1ccc(NC(=O)Nc2ccc3c(c2)CC(=O)N([C@@H](C)CO)C[C@H](C)[C@@H](CN(C)C(=O)Nc2ccc(C(F)(F)F)cc2)O3)cc1`, for which the cytotoxicity call with HSkMC and in the experiment on HepG2 was “inactive” in each case. The growth inhibition call in the experiment on S. aureus RN4220 is “inactive”.
On to `C[C@H](CO)N1C[C@H](C)[C@@H](CN(C)C(=O)Nc2ccc(F)cc2)Oc2c(NC(=O)c3nc4ccccc4s3)cccc2C1=O`, for which the cytotoxicity call in the experiment with HSkMC and with HepG2 was “inactive” in each case. Besides, the growth inhibition call in the experiment on S. aureus RN4220 was “inactive”.
On to `C[C@@H]1CN([C@H](C)CO)C(=O)c2cc(C#CC3(O)CCCC3)cnc2O[C@H]1CN(C)S(=O)(=O)c1ccc(F)cc1`, for which the cytotoxicity call in the experiment on HSkMC and in the experiment on HepG2 was “inactive” throughout. In addition, in the experiment with S. aureus RN4220, the growth inhibition call was “inactive”.
Take `C[C@@H]1CN([C@@H](C)CO)S(=O)(=O)c2ccc(Br)cc2O[C@@H]1CN(C)C(=O)C1CCCCC1`: the cytotoxicity call in the experiment on HSkMC and with HepG2 was “inactive” in each case. In addition, the growth inhibition call in the experiment with S. aureus RN4220 was “inactive”.
In the case of `COc1ccc(C#Cc2ccc3c(c2)O[C@H](CN(C)C(C)=O)[C@H](C)CN([C@H](C)CO)S3(=O)=O)cc1`, the cytotoxicity call with HSkMC and with HepG2 was “inactive” throughout. In the experiment with S. aureus RN4220, the growth inhibition call was “inactive”.
In the case of `C[C@H]1CN([C@@H](C)CO)C(=O)Cc2cc(NC(=O)c3ccncc3)ccc2O[C@@H]1CN(C)S(=O)(=O)c1ccc(F)cc1`, the cytotoxicity call in the experiment on HSkMC and with HepG2 was “inactive” throughout. Moreover, the growth inhibition call with S. aureus RN4220 was “inactive”.
As to `C[C@H](CO)N1C[C@H](C)[C@@H](CN(C)S(=O)(=O)c2cn(C)cn2)Oc2c(NC(=O)C3CCCCC3)cccc2C1=O`, the cytotoxicity call in the experiment on HSkMC and in the experiment on HepG2 was “inactive” each time. The growth inhibition call in the experiment with S. aureus RN4220 is “inactive”.
Turning to `C[C@H]1CN([C@@H](C)CO)C(=O)c2cccc(NC(=O)c3ccc(-c4nccs4)cc3)c2O[C@H]1CN(C)Cc1ccc(Cl)c(Cl)c1`, the cytotoxicity call in the experiment with HSkMC and with HepG2 was “inactive” in each case. For the same molecule, the growth inhibition call in the experiment with S. aureus RN4220 was “inactive”.
`C[C@H](CO)N1C[C@H](C)[C@@H](CN(C)Cc2ccc(C(F)(F)F)cc2)OCc2ccccc2-c2c(n(C)c3ccccc23)C1=O`: the cytotoxicity call with HSkMC and in the experiment with HepG2 was “inactive” each time. For the same molecule, the growth inhibition call in the experiment on S. aureus RN4220 is “inactive”.
For `Cc1noc(C)c1S(=O)(=O)N(C)C[C@@H]1Oc2ccc(NC(=O)Nc3ccccc3)cc2C(=O)N([C@@H](C)CO)C[C@@H]1C`, the cytotoxicity call in the experiment on HSkMC and in the experiment with HepG2 was “inactive” in each case. In addition, in the experiment on S. aureus RN4220, the growth inhibition call was “inactive”.
For the molecule `Cc1ccc(S(=O)(=O)N(C)C[C@H]2Oc3ccc(NC(=O)C4CC4)cc3C(=O)N([C@@H](C)CO)C[C@@H]2C)cc1`, the cytotoxicity call in the experiment on HSkMC and with HepG2 was “inactive” throughout. Also, the growth inhibition call in the experiment on S. aureus RN4220 was “inactive”.
In the case of `C[C@@H]1CCCCO[C@@H](CN(C)Cc2ccc(C(F)(F)F)cc2)[C@H](C)CN([C@H](C)CO)C(=O)c2cc(NS(=O)(=O)c3ccc(Cl)cc3)ccc2O1`, the cytotoxicity call in the experiment with HSkMC and in the experiment with HepG2 was “active” throughout. For the same molecule, in the experiment with S. aureus RN4220, the growth inhibition call is “inactive”.
As to `CN(C)[C@@H]1C(=O)C(C(=O)NCN2CCCC2)=C(O)[C@@]2(O)C(O)=C3C(=O)c4c(O)cccc4[C@@](C)(O)[C@H]3C[C@@H]12`, the cytotoxicity call in the experiment with HSkMC and in the experiment on HepG2 was “inactive” in each case. Also, the growth inhibition call with S. aureus RN4220 is “active”.
Consider `COc1cc(O)c(C(=O)O)c(O)c1`, for which the cytotoxicity call with HSkMC and in the experiment with HepG2 was “inactive” in each case. In the experiment on S. aureus RN4220, the growth inhibition call is “inactive”.
Regarding `C#CCN([C@H](/C=C/C1CC1)[C@@H](O)CCn1cc(CCC(=O)NO)nn1)[C@@H](Cc1ccccc1)C(=O)OC`, the cytotoxicity call in the experiment with HSkMC and in the experiment with HepG2 was “inactive” in each case. Also, the growth inhibition call in the experiment with S. aureus RN4220 was “inactive”.
On to `CCCN1C[C@@H](C)[C@@H](OC)CN(C)C(=O)c2ccc(NS(=O)(=O)c3cn(C)cn3)cc2OC[C@H]1C`, for which the cytotoxicity call with HSkMC and in the experiment on HepG2 was “inactive” in each case. The growth inhibition call with S. aureus RN4220 was “inactive”.
Take `CCC1C(=O)OCC1Cc1cncn1C.O=[N+]([O-])O` (stereo unspecified): the cytotoxicity call in the experiment on HSkMC and in the experiment with HepG2 was “inactive” in each case. For the same molecule, the growth inhibition call with S. aureus RN4220 was “inactive”.
For `C[C@H]1CN([C@@H](C)CO)C(=O)c2cc(NC(=O)C3CC3)ccc2O[C@@H]1CN(C)Cc1ccc(Oc2ccccc2)cc1`, the cytotoxicity call in the experiment on HSkMC and with HepG2 was “inactive” each time. For the same molecule, the growth inhibition call with S. aureus RN4220 was “inactive”.
For the molecule `CC(C)NC(=O)Nc1ccc2c(c1)C(=O)N([C@@H](C)CO)C[C@H](C)[C@@H](CN(C)Cc1ccccc1)OCCCC[C@H](C)O2`, the cytotoxicity call with HSkMC and in the experiment with HepG2 was “inactive” in each case. In the experiment with S. aureus RN4220, the growth inhibition call was “inactive”.
Consider `Cc1noc(C)c1S(=O)(=O)N(C)C[C@H]1Oc2ccc(NC(=O)Cn3cnnn3)cc2CC(=O)N([C@@H](C)CO)C[C@@H]1C`, for which the cytotoxicity call in the experiment on HSkMC (human skeletal muscle cells) and with HepG2 was “inactive” throughout. In addition, in the experiment with S. aureus RN4220, the growth inhibition call was “inactive”.
In the case of `C[C@@H]1CN([C@@H](C)CO)C(=O)c2cc(C#Cc3cccnc3)cnc2O[C@@H]1CN(C)S(C)(=O)=O`, the cytotoxicity call in the experiment with HSkMC and in the experiment with HepG2 was “inactive” each time. In the experiment with S. aureus RN4220, the growth inhibition call was “inactive”.
As for `C[C@@H]1CN([C@H](C)CO)C(=O)c2cc(NC(=O)Nc3cccc4ccccc34)ccc2O[C@H]1CN(C)C(=O)Nc1ccc(C(F)(F)F)cc1`, the cytotoxicity call with HSkMC and with HepG2 was “inactive” throughout. Also, the growth inhibition call in the experiment with S. aureus RN4220 was “inactive”.
Consider `CN1C(CCl)Nc2cc(Cl)c(S(N)(=O)=O)cc2S1(=O)=O` (stereo unspecified), for which the cytotoxicity call with HSkMC and with HepG2 was “inactive” in each case. For the same molecule, in the experiment on S. aureus RN4220, the growth inhibition call was “inactive”.
For `C[C@H]1CN([C@@H](C)CO)C(=O)Cc2cc(NC(=O)CCCN(C)C)ccc2O[C@H]1CN(C)Cc1ccc(Oc2ccccc2)cc1`, the cytotoxicity call with HSkMC and in the experiment with HepG2 was “inactive” throughout. Moreover, the growth inhibition call in the experiment with S. aureus RN4220 is “inactive”.
